The campaign covered roughly 420,000 compounds. About 50,000 (12%) were called active. Inconclusive results, whose numbers are uncertain, are shown with a selection of clear calls. Calls come from the whole dose curve; as a rule, active = well fitted inhibition curve with a large enough effect; inconclusive = small, poorly fitted or top-dose-only effect; inactive = flat fitted curve, though single readings scatter. Potencies of inconclusive entries are left out as doubtful fits.
Assay: qHTS for Inhibitors of human tyrosyl-DNA phosphodiesterase 1 (TDP1): qHTS in cells in presence of CPT; note: nearly all actives have a fitted effect of over 55% in size
Conditions: chicken DT40 Tdp1-/-;hTDP1 cells + 20 nM CPT, ATP luminescence, 48 h; activity change, negative = growth inhibition: at 46.2 µM (top of the series) unless noted
Summary of the method: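 Chicken DT40 Tdp1-/- cells stably complemented with human TDP1 were seeded at 400 cells/well in medium containing 20 nM camptothecin, exposed to pin-transferred compounds, and grown at 37 °C for at least 48 hr. Viability was read as ATP luminescence.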
% is set by controls: 0 for no effect and ±100 for the full control effect; potency is the fitted concentration of half-maximal effect; tags give direction and shape of the fitted curve.

SMILES | Potency | activity change, negative = growth inhibition
CC1CCN(S(=O)(=O)c2ccc(C(=O)NC3CCS(=O)(=O)C3)cc2)CC1 (centres undefined) | inactive | –
CC(=O)Nc1ccc(S(=O)(=O)Nc2nc3ccccc3nc2N2CCOCC2)cc1 | inactive | –
COCCn1c(-c2ccc(Cl)cc2)cnc1SCC(=O)NCCc1ccc(OC)c(OC)c1 | active: 20.6 µM | –
CCOC(=O)c1c(NC(=O)CNCCOC)sc2c1CCCC2 | inconclusive [inhibitor, single point] | –
COc1cccc(N2CCN(C(=O)c3c(C)oc4ncnc(N5CCCCC5)c34)CC2)c1 | inconclusive [inhibitor, single point] | –
Cc1ccc(Cl)cc1N1CCN(CCCNc2ncnc3onc(-c4ccc(F)cc4)c23)CC1 | active: 14.6 µM | –
CCOC(=O)c1sc2nc(C)cc(-c3ccccc3)c2c1N | inconclusive [inhibitor, single point] | –
Cc1noc(C)c1CSCC(=O)N(C)CC(=O)Nc1ccccc1C(F)(F)F | inactive | –
Cc1cc(Nc2sc(C(=O)c3ccc(F)cc3)c(N)c2C(=O)Nc2ccc(F)cc2)ccc1Cl | active: 11.6 µM | –
Cc1ccc(NS(=O)(=O)c2ccc(C(=O)N3CCCCCC3)cc2)cc1 | inconclusive [inhibitor, single point] | –
O=C(c1ccccn1)C1CCCN(Cc2cn[nH]c2-c2cc3ccccc3o2)C1 (centres undefined) | inconclusive [inhibitor, single point] | –
Cc1ccc(O)c(-c2cc(C(F)(F)F)[nH]n2)c1 | inconclusive [inhibitor, single point] | –
CCOc1ccc(S(=O)(=O)N2CCN(C(=O)Cc3n[nH]c(=O)c4ccccc34)CC2)cc1 | inactive | –
CCCNC(=O)COc1nc2ccccc2nc1N1CCOCC1 | inconclusive [inhibitor, single point] | –
N#Cc1c(NCCCO)nc(NCc2ccccc2)c2c1CCN(Cc1ccccc1)C2 | inconclusive [inhibitor, single point] | –
O=C(NCc1ccccc1Cl)c1ccc(S(=O)(=O)Nc2cccc(C(F)(F)F)c2)cc1 | inactive | –
COc1ccc(C)cc1NC(=O)CNC(C)C(=O)Nc1cc(Cl)ccc1Cl (centres undefined) | inconclusive [inhibitor, single point] | –
CC(=O)c1ccc(OCC(O)CN(C)CCOc2ccc(Br)cc2)cc1 (centres undefined) | inconclusive [inhibitor, single point] | –
COc1ccc(OC)c(-c2csc(NC(=O)C3CSC4(C)CCC(=O)N34)n2)c1 (centres undefined) | inconclusive [inhibitor, single point] | –
Cc1ccccc1C(=O)N=c1ccn(-c2nc3ccccc3nc2NS(=O)(=O)c2ccc(F)cc2)cc1 | inconclusive [inhibitor, single point] | –
COc1ccc(CCNc2oc(-c3cccc4ccccc34)nc2P(=O)(OC)OC)cc1OC | inconclusive [inhibitor, single point] | –
COCc1ccc(C(=O)N2CCCC(N(C)CCc3ccccc3)C2)s1 (centres undefined) | inconclusive [inhibitor, single point] | –

SMILES | Potency | activity change, negative = growth inhibition
CCN(c1ccccc1)S(=O)(=O)c1ccc(Oc2ccc(-n3ccnc3)cc2)nc1 | active: 5.17 µM | –
CNC(=O)C1CCN(S(=O)(=O)c2c(C)noc2/C=C/N(C)C)CC1 | inconclusive [inhibitor, single point] | –
Nc1c2c(nc3sc4c(c13)CCCC4)CCCCCC2 | inconclusive [inhibitor, single point] | –
COc1ccc(/C=N/NC(=S)Nc2ccccc2)cc1COc1cccc(C)c1C | inconclusive [inhibitor, partial curve] | –
CC(C)Oc1ccccc1C1Nc2ccccc2C(=O)N1c1ccc2c(c1)OCCO2 (centres undefined) | inconclusive [inhibitor, single point] | –
Cc1c(C(=O)Nc2ccncc2)oc2c1C(=O)CC(C)(C)C2 | inconclusive [inhibitor, single point] | –
O=C(Nc1ccccc1)c1nc(S(=O)(=O)Cc2ccccc2F)ncc1Cl | active: 1.12 µM | –
Cc1oc(-c2cccs2)nc1CS(=O)CC(=O)NC1CCCCCC1 (centres undefined) | inconclusive [inhibitor, single point] | –
COc1ccc2nc(NC(=O)c3nc(SCc4ccccc4F)ncc3Cl)sc2c1 | inactive | –
CC(=O)N(C)c1ccc(C=C2C=Cc3ccccc32)cc1 | active: 9.2 µM | –
CCN1C(=O)[C@H]2[C@@H](c3ccc(-c4cc(C(C)=O)cs4)cc3)N[C@@](Cc3ccccc3)(C(=O)OC)[C@H]2C1=O | inconclusive [inhibitor, single point] | –
Cc1ccc(NC(=S)N2CCC(C(=O)c3ccc(F)cc3)CC2)cc1C | inactive | –
CCOc1ccc(CCNC(=O)c2nnn(CC(=O)Nc3ccc(OC)c(OC)c3)c2N)cc1OCC | inconclusive [inhibitor, single point] | –
COc1ccc(CN2CCn3ncc(C(=O)Nc4cccc(C)c4)c3C2=O)cc1 | – | inconclusive: -21.7% [inhibitor]
O=S1(=O)N[C@H](Cc2ccccc2)COc2cc(N3CC[C@H](O)C3)ccc21 | inconclusive [inhibitor, single point] | –
CC(C)n1c(/N=C/c2c[nH]c3ccccc23)nc2ccccc21 | inconclusive [inhibitor, single point] | –
COc1ccc(S(=O)(=O)N2CCCCCC2)cc1NC(=O)Cc1n[nH]c(=O)c2ccccc12 | inactive | –
O=C(CSc1nnc(-c2cccc(S(=O)(=O)N3CCCCC3)c2)o1)NCCC1=CCCCC1 | – | inconclusive: -32.5% [inhibitor]
CCNC(=O)Nc1cc(S(=O)(=O)Nc2ccc(OC)cc2)ccc1N1CCOCC1 | active: 2.31 µM | –
COC(C[C@@H](O)CC(=O)[C@H](C)OCc1ccccc1)OC | inactive | –
O=C(N/N=C/c1ccccc1F)c1csc2c1CCCC2 | inconclusive [inhibitor, partial curve] | –
CCCCn1c(NCc2cc(Br)ccc2O)nc2ccccc21 | active: 14.6 µM | –

Reference: PubChem BioAssay AID686979 (National Center for Advancing Translational Sciences (NCATS), 2013)
